{"source": "the supplement of paper PMC8728848", "experiment_in_all_cases": "glycan array binding signal (z-score within array); higher = stronger binding", "details_in_all_cases": "glycan notation: IUPAC condensed, linker removed", "key": {"[1]": {"molecular_target": "Gal(a1-3)Gal(b1-3)GlcNAc(b1-2)Man", "how_it_was_run": "(§1)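 Glycan array binding is given as a within-array Z-score, which can be read as non-binding when negative. The arrays, 3228 of them, came from the Consortium for Functional Glycomics database and were retained only where the protein sequence was available. Z-scores were averaged across arrays of the same protein sequence at different concentrations or buffers and across linkers.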"}, "[2]": {"molecular_target": "Gal(a1-3)Gal(b1-3)GlcNAc(b1-2)Man(a1-3)[Gal(a1-3)Gal(b1-3)GlcNAc(b1-2)Man(a1-6)]Man(b1-4)GlcNAc(b1-4)GlcNAc", "how_it_was_run": "as §1"}, "[3]": {"molecular_target": "Gal(a1-3)Gal(b1-3)GlcNAc(b1-3)GalNAc", "how_it_was_run": "as §1"}, "[4]": {"molecular_target": "Gal(a1-3)Gal(b1-3)GlcNAc(b1-6)GalNAc", "how_it_was_run": "as §1"}, "[5]": {"molecular_target": "Gal(a1-3)Gal(b1-3)[Fuc(a1-4)]GlcNAc(b1-2)Man(a1-3)[Gal(a1-3)Gal(b1-3)[Fuc(a1-4)]GlcNAc(b1-2)Man(a1-6)]Man(b1-4)GlcNAc(b1-4)GlcNAc", "how_it_was_run": "as §1"}, "Gal(a1-3)Gal(b1-4)Glc": {"molecular_target": "Gal(a1-3)Gal(b1-4)Glc", "how_it_was_run": "as §1"}, "Gal(a1-3)Gal(b1-4)GlcNAc": {"molecular_target": "Gal(a1-3)Gal(b1-4)GlcNAc", "how_it_was_run": "as §1"}, "[6]": {"molecular_target": "Gal(a1-3)Gal(b1-4)GlcNAc(b1-2)Man", "how_it_was_run": "as §1"}, "[7]": {"molecular_target": "Gal(a1-3)Gal(b1-4)GlcNAc(b1-2)Man(a1-3)[Gal(a1-3)Gal(b1-4)GlcNAc(b1-2)Man(a1-6)]Man(b1-4)GlcNAc(b1-4)GlcNAc", "how_it_was_run": "as §1"}, "[8]": {"molecular_target": "Gal(a1-3)Gal(b1-4)GlcNAc(b1-3)GalNAc", "how_it_was_run": "as §1"}, "[9]": {"molecular_target": "Gal(a1-3)Gal(b1-4)GlcNAc(b1-6)GalNAc", "how_it_was_run": "as §1"}, "[10]": {"molecular_target": "Gal(a1-3)Gal(b1-4)[Fuc(a1-3)]GlcNAc", "how_it_was_run": "as §1"}, "[11]": {"molecular_target": "Gal(a1-3)Gal(b1-4)[Fuc(a1-3)]GlcNAc(b1-2)Man(a1-3)[Gal(a1-3)Gal(b1-4)[Fuc(a1-3)]GlcNAc(b1-2)Man(a1-6)]Man(b1-4)GlcNAc(b1-4)GlcNAc", "how_it_was_run": "as §1"}, "Gal(a1-3)GalNAc": {"molecular_target": "Gal(a1-3)GalNAc", "how_it_was_run": "as §1"}, "[12]": {"molecular_target": "Gal(a1-3)[Gal(a1-4)]Gal(b1-4)GlcNAc", "how_it_was_run": "as §1"}, "[13]": {"molecular_target": "Gal(a1-4)Gal(b1-3)GlcNAc(b1-2)Man(a1-3)[Gal(a1-4)Gal(b1-3)GlcNAc(b1-2)Man(a1-6)]Man(b1-4)GlcNAc(b1-4)GlcNAc", "how_it_was_run": "as §1"}, "Gal(a1-4)Gal(b1-4)Glc": {"molecular_target": "Gal(a1-4)Gal(b1-4)Glc", "how_it_was_run": "as §1"}, "Gal(a1-4)Gal(b1-4)GlcNAc": {"molecular_target": "Gal(a1-4)Gal(b1-4)GlcNAc", "how_it_was_run": "as §1"}, "[14]": {"molecular_target": "Gal(a1-4)Gal(b1-4)GlcNAc(b1-2)Man(a1-3)[Gal(a1-4)Gal(b1-4)GlcNAc(b1-2)Man(a1-6)]Man(b1-4)GlcNAc(b1-4)GlcNAc", "how_it_was_run": "as §1"}, "[15]": {"molecular_target": "Gal(a1-4)Gal(b1-4)GlcNAc(b1-3)Gal(b1-4)Glc", "how_it_was_run": "as §1"}, "Gal(a1-4)GlcNAc": {"molecular_target": "Gal(a1-4)GlcNAc", "how_it_was_run": "as §1"}, "Gal(a1-6)Glc": {"molecular_target": "Gal(a1-6)Glc", "how_it_was_run": "as §1"}, "Gal(b1-2)Gal": {"molecular_target": "Gal(b1-2)Gal", "how_it_was_run": "as §1"}, "Gal(b1-3)Gal": {"molecular_target": "Gal(b1-3)Gal", "how_it_was_run": "as §1"}, "Gal(b1-3)Gal(b1-4)GlcNAc": {"molecular_target": "Gal(b1-3)Gal(b1-4)GlcNAc", "how_it_was_run": "as §1"}, "[16]": {"molecular_target": "Gal(b1-3)Gal(b1-4)GlcNAc(b1-2)Man(a1-3)[Gal(b1-3)Gal(b1-4)GlcNAc(b1-2)Man(a1-6)]Man(b1-4)GlcNAc(b1-4)GlcNAc", "how_it_was_run": "as §1"}, "Gal(b1-3)GalNAc": {"molecular_target": "Gal(b1-3)GalNAc", "how_it_was_run": "as §1"}, "[17]": {"molecular_target": "Gal(b1-3)GalNAc(a1-3)[Fuc(a1-2)]Gal(b1-4)Glc", "how_it_was_run": "as §1"}, "[18]": {"molecular_target": "Gal(b1-3)GalNAc(a1-3)[Fuc(a1-2)]Gal(b1-4)GlcNAc", "how_it_was_run": "as §1"}, "Gal(b1-3)GalNAc(b1-3)Gal": {"molecular_target": "Gal(b1-3)GalNAc(b1-3)Gal", "how_it_was_run": "as §1"}, "[19]": {"molecular_target": "Gal(b1-3)GalNAc(b1-3)Gal(a1-4)Gal(b1-4)Glc", "how_it_was_run": "as §1"}, "[20]": {"molecular_target": "Gal(b1-3)GalNAc(b1-4)Gal(b1-4)Glc", "how_it_was_run": "as §1"}, "[21]": {"molecular_target": "Gal(b1-3)GalNAc(b1-4)[Neu5Ac(a2-3)]Gal(b1-4)Glc", "how_it_was_run": "as §1"}, "Gal(b1-3)GlcNAc": {"molecular_target": "Gal(b1-3)GlcNAc", "how_it_was_run": "as §1"}, "[22]": {"molecular_target": "Gal(b1-3)GlcNAc(a1-3)Gal(b1-4)GlcNAc", "how_it_was_run": "as §1"}, "[23]": {"molecular_target": "Gal(b1-3)GlcNAc(a1-6)Gal(b1-4)GlcNAc", "how_it_was_run": "as §1"}, "Gal(b1-3)GlcNAc(b1-2)Man": {"molecular_target": "Gal(b1-3)GlcNAc(b1-2)Man", "how_it_was_run": "as §1"}, "[24]": {"molecular_target": "Gal(b1-3)GlcNAc(b1-2)Man(a1-3)[Gal(b1-3)GlcNAc(b1-2)Man(a1-6)]Man(b1-4)GlcNAc(b1-4)GlcNAc", "how_it_was_run": "as §1"}, "[25]": {"molecular_target": "Gal(b1-3)GlcNAc(b1-2)Man(a1-3)[Gal(b1-3)GlcNAc(b1-2)Man(a1-6)]Man(b1-4)GlcNAc(b1-4)[Fuc(a1-6)]GlcNAc", "how_it_was_run": "as §1"}, "[26]": {"molecular_target": "Gal(b1-3)GlcNAc(b1-2)Man(a1-3)[GlcNAc(b1-4)][Gal(b1-3)GlcNAc(b1-2)Man(a1-6)]Man(b1-4)GlcNAc(b1-4)GlcNAc", "how_it_was_run": "as §1"}, "[27]": {"molecular_target": "Gal(b1-3)GlcNAc(b1-2)[Gal(b1-3)GlcNAc(b1-6)]Man(a1-6)[Gal(b1-3)GlcNAc(b1-2)Man(a1-3)]Man(b1-4)GlcNAc(b1-4)GlcNAc", "how_it_was_run": "as §1"}, "[28]": {"molecular_target": "Gal(b1-3)GlcNAc(b1-3)Gal(b1-3)GlcNAc", "how_it_was_run": "as §1"}, "[29]": {"molecular_target": "Gal(b1-3)GlcNAc(b1-3)Gal(b1-4)Glc", "how_it_was_run": "as §1"}, "[30]": {"molecular_target": "Gal(b1-3)GlcNAc(b1-3)Gal(b1-4)GlcNAc", "how_it_was_run": "as §1"}, "[31]": {"molecular_target": "Gal(b1-3)GlcNAc(b1-3)Gal(b1-4)GlcNAc(b1-2)Man(a1-3)[Gal(b1-3)GlcNAc(b1-3)Gal(b1-4)GlcNAc(b1-2)Man(a1-6)]Man(b1-4)GlcNAc(b1-4)GlcNAc", "how_it_was_run": "as §1"}}, "note": "The list shows a part of the results."}
{"binder": "AAL (Agrocybe aegerita), Q6WY08 (protein) MQGVNIYNISAGTSVDLAAPVTTGDIVTFFSSALNLNAGAGNPNNTTLNLFAENGAYLLHIAFRLQENVIIFNSRQPDGPWLVEQRVSDVANQFAGIDGKAMVTVFDHGDKYQVVINEKTVIQYTKQISGLTLSLSYNATEETSIFSTVVEAVTYTGLALEHHHHHH", "values": [{"measurement": "glycan array binding signal (z-score)", "setting": "[1]", "value": -0.12}, {"measurement": "glycan array binding signal (z-score)", "setting": "[2]", "value": -0.119}, {"measurement": "glycan array binding signal (z-score)", "setting": "[3]", "value": -0.075}, {"measurement": "glycan array binding signal (z-score)", "setting": "[4]", "value": 0.046}, {"measurement": "glycan array binding signal (z-score)", "setting": "[5]", "value": -0.122}, {"measurement": "glycan array binding signal (z-score)", "setting": "Gal(a1-3)Gal(b1-4)Glc", "value": -0.036}, {"measurement": "glycan array binding signal (z-score)", "setting": "Gal(a1-3)Gal(b1-4)GlcNAc", "value": 0.682}, {"measurement": "glycan array binding signal (z-score)", "setting": "[6]", "value": 0.637}, {"measurement": "glycan array binding signal (z-score)", "setting": "[7]", "value": 7.5}, {"measurement": "glycan array binding signal (z-score)", "setting": "[8]", "value": 0.152}, {"measurement": "glycan array binding signal (z-score)", "setting": "[9]", "value": -0.136}, {"measurement": "glycan array binding signal (z-score)", "setting": "[10]", "value": -0.142}, {"measurement": "glycan array binding signal (z-score)", "setting": "[11]", "value": -0.14}, {"measurement": "glycan array binding signal (z-score)", "setting": "Gal(a1-3)GalNAc", "value": -0.15}, {"measurement": "glycan array binding signal (z-score)", "setting": "[12]", "value": -0.049}, {"measurement": "glycan array binding signal (z-score)", "setting": "[13]", "value": -0.136}, {"measurement": "glycan array binding signal (z-score)", "setting": "Gal(a1-4)Gal(b1-4)Glc", "value": -0.147}, {"measurement": "glycan array binding signal (z-score)", "setting": "Gal(a1-4)Gal(b1-4)GlcNAc", "value": -0.136}, {"measurement": "glycan array binding signal (z-score)", "setting": "[14]", "value": -0.136}, {"measurement": "glycan array binding signal (z-score)", "setting": "[15]", "value": -0.155}, {"measurement": "glycan array binding signal (z-score)", "setting": "Gal(a1-4)GlcNAc", "value": -0.142}, {"measurement": "glycan array binding signal (z-score)", "setting": "Gal(a1-6)Glc", "value": -0.145}, {"measurement": "glycan array binding signal (z-score)", "setting": "Gal(b1-2)Gal", "value": -0.141}, {"measurement": "glycan array binding signal (z-score)", "setting": "Gal(b1-3)Gal", "value": -0.137}, {"measurement": "glycan array binding signal (z-score)", "setting": "Gal(b1-3)Gal(b1-4)GlcNAc", "value": -0.135}, {"measurement": "glycan array binding signal (z-score)", "setting": "[16]", "value": 6.91}, {"measurement": "glycan array binding signal (z-score)", "setting": "Gal(b1-3)GalNAc", "value": -0.148}, {"measurement": "glycan array binding signal (z-score)", "setting": "[17]", "value": -0.161}, {"measurement": "glycan array binding signal (z-score)", "setting": "[18]", "value": -0.131}, {"measurement": "glycan array binding signal (z-score)", "setting": "Gal(b1-3)GalNAc(b1-3)Gal", "value": -0.14}, {"measurement": "glycan array binding signal (z-score)", "setting": "[19]", "value": -0.141}, {"measurement": "glycan array binding signal (z-score)", "setting": "[20]", "value": -0.128}, {"measurement": "glycan array binding signal (z-score)", "setting": "[21]", "value": -0.144}, {"measurement": "glycan array binding signal (z-score)", "setting": "Gal(b1-3)GlcNAc", "value": -0.146}, {"measurement": "glycan array binding signal (z-score)", "setting": "[22]", "value": -0.142}, {"measurement": "glycan array binding signal (z-score)", "setting": "[23]", "value": -0.122}, {"measurement": "glycan array binding signal (z-score)", "setting": "Gal(b1-3)GlcNAc(b1-2)Man", "value": -0.154}, {"measurement": "glycan array binding signal (z-score)", "setting": "[24]", "value": -0.155}, {"measurement": "glycan array binding signal (z-score)", "setting": "[25]", "value": -0.133}, {"measurement": "glycan array binding signal (z-score)", "setting": "[26]", "value": -0.094}, {"measurement": "glycan array binding signal (z-score)", "setting": "[27]", "value": -0.153}, {"measurement": "glycan array binding signal (z-score)", "setting": "[28]", "value": -0.153}, {"measurement": "glycan array binding signal (z-score)", "setting": "[29]", "value": -0.127}, {"measurement": "glycan array binding signal (z-score)", "setting": "[30]", "value": -0.152}, {"measurement": "glycan array binding signal (z-score)", "setting": "[31]", "value": -0.132}]}
